# Results published in paper PMC12136788.
# The other results are listed elsewhere or left out.
# T1: UNK ZnF1-3 (human, UniProt Q9C0B0 31-174)
# T1 sequence: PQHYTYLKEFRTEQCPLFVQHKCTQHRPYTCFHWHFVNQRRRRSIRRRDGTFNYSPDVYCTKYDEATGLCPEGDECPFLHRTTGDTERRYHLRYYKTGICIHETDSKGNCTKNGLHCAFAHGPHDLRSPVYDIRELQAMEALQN
# B1: chr2:84536551:84536552:-_ENSMUSG00000034075_ENSMUST00000035840|mus_hu|FALSE|FALSE (ssRNA)
# RNA: GGGAGUUCUACAGUCCGACGAUCCUUGUCCUCAUCCUCCUCAGCUCGAGGGAAAAUCCCUGGGUCCAUGAAGGUGGCCAUGCUGAAGUUGGCCAACACAAAGAGAAACAUAAUUGCAUUGUAGAUGGGCACUGCAGGUGACACCAACAGAGGAUUGAGCAUCA
# B2: chr3:52726942:52726943:+_ENSG00000163938_ENST00000418458|hu_mus|motif|central (ssRNA)
# RNA: GGGAGUUCUACAGUCCGACGAUCCCGAAGGGCAAGUGCAGUGGGGGAGUUACAAGGUGAGAUAAUUAGGCAUGGACUGUCGGUGAUUGUGAUCUGCUUGUCUAAAGGGACAAUCUGCAUGCUCCUUGUAAGUCCCAUGGAAAUCAACAGAGGAUUGAGCAUCA
# B3: 17148536_17150076_701_CDS_ENSMUSG00000025777_ENSMUST00000026879|mouse|control|control (ssRNA)
# RNA: GGGAGUUCUACAGUCCGACGAUCAUCCAAGACCUUCUCCAACUCAUCAAGAAUUUUCUUCAAGUAUUUGACAUUGUCAUGAUCAAGCAGCUUUGACUUAAGUCGCUUCUGUUUGGCAAUGUAUGCCUCUUGUAAGUCAGGGUUCAACAGAGGAUUGAGCAUCA
# B4: 35972526_35972646_928_CDS_ENSMUSG00000001525_ENSMUST00000001566|mouse|control|control (ssRNA)
# RNA: GGGAGUUCUACAGUCCGACGAUCCUGGCCCGGGAAACGGAGGCAGGUGGUGACGCCGCUCAUGGUGGCCGAGACGAGAUGGUUCAGGUCUCCGUAGGUUGGCGUGGUGAGCUUGAGGGUACGGAAGCAGAUGUCGUAGAGGGCCAACAGAGGAUUGAGCAUCA
# B5: chr7:7679991:7679992:-_ENSG00000106399_ENST00000396682|hu_hu|hu_hu_hu_mus_False|28_38 (ssRNA)
# RNA: GGGAGUUCUACAGUCCGACGAUCUGGGAUGAAUCUUUUCCAGCUUCCCCACGAAGCACACGGGCCGGUCGAUAUACUGUGGUAACAUGCUGGCGUUGAUGCGCGACCUGGGCAAGUGCAUUAUGUCCUCCAUGAUUCUGCCGCCAACAGAGGAUUGAGCAUCA
# B6: chr3:176767854:176767855:-_ENSG00000177565_ENST00000430069|hu_hu|hu_hu_hu_mus_False|28_108 (ssRNA)
# RNA: GGGAGUUCUACAGUCCGACGAUCGACAUCCUUGUUGCUGGGCACGUCCUGCCCUCCUUCCCGUAUGCAGUGUCUAAGCACGAGCUGCGUAGGGCCACUCGUGCUGUUCUCACUAAGGUUCCAGAUUCUUGCCGUGGAGUCUCCCAACAGAGGAUUGAGCAUCA
# B7: chr20:46266449:46266450:+_ENSG00000124151_ENST00000372004|hu_hu|FALSE|FALSE (ssRNA)
# RNA: GGGAGUUCUACAGUCCGACGAUCUUGCUUAGUCCCCAGAUGACUACCAUUUGAGGAUAUGGAAUUAUUGUAAAAGUCAGAACUAGUCAGAUCACCAAGAAUAGCAUCUAGAUUAUCCAAGUCUCCAGAUCCCUCUUCACUUGUCAACAGAGGAUUGAGCAUCA
# B8: chr12:73313434:73313435:-_ENSMUSG00000021087_ENSMUST00000021497|mus_mus|FALSE|FALSE (ssRNA)
# RNA: GGGAGUUCUACAGUCCGACGAUCCAUAUAUCCUAAGAGUACAGGAAGAGCCUCAAAACACCUGUCUCAAAGUUUGCCUCUAAGAUUAUGGUACCAGGAAAGGGAAACAAUCAAUUUGCAGUAACGAGGAAGGAGAGAGCUGUUCAACAGAGGAUUGAGCAUCA
# B9: chr14:66974463:66974464:+_ENSMUSG00000022044_ENSMUST00000074523|mus_hu|mus_mus_mus_hu_False|28_88 (ssRNA)
# RNA: GGGAGUUCUACAGUCCGACGAUCUUGUAGGACGACUUAUUCAGGGGAUCAGACAAGAAGCAGGAGCAGAACAAGGACACCAGCGGGAGCUCCUUCAUCUUCUCUUUAUAGGCUGCAAGGGUCAUGUUUCUGGGAUCUGGUGGCCAACAGAGGAUUGAGCAUCA
# B10: chr7:138035701:138035702:+_ENSMUSG00000040268_ENSMUST00000120441|mus_mus|motif|central (ssRNA)
# RNA: GGGAGUUCUACAGUCCGACGAUCUCCUGCAUUCAUAACAAAACAAAACUCUGCCUUUGGCCUUAACUUAGUUGCAUCGCGGACCUUUGAAAUGUAGGUAAGUUUAAUGGCUCCAACCCGUGACGAUCCUGAAGGCAGGUUCUGCAACAGAGGAUUGAGCAUCA
# B11: chr12:46321692:46321693:-_ENSG00000139218_ENST00000369367|hu_mus|motif|central (ssRNA)
# RNA: GGGAGUUCUACAGUCCGACGAUCGCUCUCUACAAAUGCUUCUAUGUUUACUGCAGAAUCGUUCAAGUCAGUACUUUCGGCAGUGAGACUCUCCCCUGUUCUUUCAUCGUUCAAGUCAGUACUUUCUACAGUGAGACUCUCCUCCAACAGAGGAUUGAGCAUCA
# B12: 96632373_96634150_447_3pUTR_ENSMUSG00000020876_ENSMUST00000107661|mouse|control|control (ssRNA)
# RNA: GGGAGUUCUACAGUCCGACGAUCGCUUCUCAAUGAACUCAUCGGAGCCGCCAAAGAAAGUGGACUUCCCAGGAAGCUCCGGAACAGGCACCAAGCCGGCGUUCCUCUGCAGCUGCUUCCUCAGCCACACAAACUCACGGUAGCCAACAGAGGAUUGAGCAUCA
# B13: chr3:102850973:102850974:+_ENSMUSG00000068823_ENSMUST00000029446|mus_mus|FALSE|FALSE (ssRNA)
# RNA: GGGAGUUCUACAGUCCGACGAUCACGAUGAUCUGAAUGGGAAUGGAAUGAAACCGUGCCCUUGGGAAGUUUUUUAAUCCUAAUAGCAUGAUUUCUUUGGGCAGAGAGCAUAUCAGGAACCACAGUAAACUCUACUUCAUCUGCCAACAGAGGAUUGAGCAUCA
# B14: chr4:40633508:40633509:-_ENSMUSG00000028411_ENSMUST00000129021|mus_mus|motif|central (ssRNA)
# RNA: GGGAGUUCUACAGUCCGACGAUCGAAGAAGUGUACGCUUUAGUUCAGGAUUGAACGGAGCAUAGGCAAUGCGGACAGAUGCGGGCACUGCCCUUGGUCGCCGAGACGAGUGUCACCCGCCCCAGUGCUUCCUGAGGUGCUCUUCAACAGAGGAUUGAGCAUCA
# B15: chr17:45747064:45747065:+_ENSG00000108424_ENST00000290158|hu_hu|hu_hu_hu_mus_True|18_108 (ssRNA)
# RNA: GGGAGUUCUACAGUCCGACGAUCGCCUACAGUCCAUGCUGUUGUGUCUCGAACAACUACACUGGGGUCUUUCAUUAGUUCUAUUAGGGUGGGCAUAGCCUGUAUGACUAAUGGUUUGAGCUGACUGGGCUCUGGUCCUUCCAACAACAGAGGAUUGAGCAUCA
# B16: chr8:21939936:21939937:+_ENSG00000158856_ENST00000443491|hu_mus|FALSE|FALSE (ssRNA)
# RNA: GGGAGUUCUACAGUCCGACGAUCUCCCAGCAUGAUCACACACACAGUGGACAGGGAGUGCCAGGGUCUGGGUAAAAACGAAACCCAGACCUGGGCAAAAUAGAUAUAUAUAUAUGUAUAAUUAUAUACACGUACAUAUGUGGACAACAGAGGAUUGAGCAUCA
# B17: chr16:33771563:33771564:+_ENSMUSG00000075254_ENSMUST00000152782|mus_hu|FALSE|FALSE (ssRNA)
# RNA: GGGAGUUCUACAGUCCGACGAUCCAGACUUAGAGUGGAUAUAAGUAUAAAAAUAACCAAAUUCUUACAAAUAAUACUUUGCUGCUACAGUACUGAAUAAUUAGUGGAGGUUGCAAUUAUAAUACAACUUUAAAUAACAUUCUCCAACAGAGGAUUGAGCAUCA
# B18: chr7:90019206:90019207:+_ENSMUSG00000057706_ENSMUST00000082237|mus_hu|FALSE|FALSE (ssRNA)
# RNA: GGGAGUUCUACAGUCCGACGAUCUUUAAUAAAGCUGCAGUAUCCUGGUUUCACAGGAACUCCUGGCCCUUCCACGAACAUUCAAAAAGGAUCCACUGUGUUCUAUAAUAAGUAUCAUAGGAACCCACCCACAAAGGGGAACACCAACAGAGGAUUGAGCAUCA
# B19: chr3:9412954:9412955:+_ENSG00000134077_ENST00000452837|hu_mus|hu_hu_hu_mus_False|1_68 (ssRNA)
# RNA: GGGAGUUCUACAGUCCGACGAUCGGUUGAUAUCUCUUCUUUGAUGGCUGGAUUUUCAUAAUAGUCCAAGAUAUGAGAAUCUGAAGUGCUGCUGGCAUGCUUUUUCUUACCAUCUUUCUCAUCUGCUUUGUCUCCUUGUCCAUUCAACAGAGGAUUGAGCAUCA
# B20: chr19:21355511:21355512:+_ENSMUSG00000024750_ENSMUST00000025659|mus_hu|motif|central (ssRNA)
# RNA: GGGAGUUCUACAGUCCGACGAUCCAUUUCUUCCUGCUUCCAAAGAAUAUGUUGUGAAAUUAAAGAGGGUGAAGUUUAACGGUGGUAGAAGUAGACUGCCAGUCCUUUUCUGGUGUACCAUUUUAAAAAAAUACAGGCACAUAACAACAGAGGAUUGAGCAUCA
# B21: chr1:163112212:163112213:-_ENSG00000143248_ENST00000313961|hu_hu|hu_hu_hu_mus_False|1_78 (ssRNA)
# RNA: GGGAGUUCUACAGUCCGACGAUCUUUUAUUAUCAGUAAGAGUGAGUUACAUACUAGAUAAAGUAUUGGAUACAAUAAUCAGGAAACAAACACUAUUGGUCCAGAAUUUAAAACUUUAUGAGCGAAGUGCUGGCACAGGAUUUACAACAGAGGAUUGAGCAUCA
# B22: chr3:10015032:10015033:+_ENSMUSG00000027533_ENSMUST00000029046|mus_mus|mus_mus_mus_hu_True|48_88 (ssRNA)
# RNA: GGGAGUUCUACAGUCCGACGAUCGUUUUUACCAUCACAAGUGAUGAUACAGUCUGGCUUGGCCAUUGCGCCCAUUUUUCGCAAAGCCAGUCCUACUCCUAGCUCCUUCAUGUAUUCAUCAAAGCCUUUGCUGUCCACCAGGCGCAACAGAGGAUUGAGCAUCA
# Target: T1, UNK ZnF1-3
# Experiment: nsRBNS (natural sequence RNA bind-n-seq); RBNS binding buffer (assumed for nsRBNS): 25 mM Tris pH 7.5, 150 mM KCl, 3 mM MgCl2, 0.01% Triton X-100, 500 ug/ml BSA, 20 U/ml SUPERase-In, 4 C; UNK is unkempt and MSI1 is Musashi-1; names of the RNAs are library labels; protein concentration not given here; high values mean tight binding
row,Binder,binding signal
1,B1,1.05 enrichment R
2,B2,0.821 enrichment R
3,B3,0.437 enrichment R
4,B4,1.33 enrichment R
5,B5,0.621 enrichment R
6,B6,0.502 enrichment R
7,B7,1.02 enrichment R
8,B8,2.3 enrichment R
9,B9,1.77 enrichment R
10,B10,0.851 enrichment R
11,B11,0.581 enrichment R
12,B12,0.85 enrichment R
13,B13,1.24 enrichment R
14,B14,0.643 enrichment R
15,B15,0.898 enrichment R
16,B16,0.543 enrichment R
17,B17,1.49 enrichment R
18,B18,1.27 enrichment R
19,B19,0.438 enrichment R
20,B20,0.998 enrichment R
21,B21,0.98 enrichment R
22,B22,0.652 enrichment R
